Assay results as given in PubChem BioAssay AID652104 (National Center for Advancing Translational Sciences (NCATS), 2013).
Several values for one entry are separate records, joined by “and”; a condition that tells them apart may be missing. Equal entries are not always repeated. Screen size: about 410,000 compounds; about 7,200 (1.8%) were called active. This list was built around the results that the source calls inconclusive (neither active nor inactive); the mix of calls is not that of the screen. The call rests on the fitted dose curve; in most records, active means well fitted activation curve with a large enough effect; inconclusive means small, poorly fitted or top-dose-only effect, or another doubt; inactive means no such curve, though single readings can be large or run the other way. Potencies beside an inconclusive call are fits to weak or partial responses and may not hold up.

Assay: qHTS of TDP-43 Inhibitors; further: nearly all actives have a fitted effect of over 50% in size; on growth rescue (activation): % of control where 0% means no effect
Details: TDP-43 expressing yeast growth rescue, BacTiter-Glo, 24 h; growth rescue (activation): at 46.1 µM (top of the series) unless noted
Outline: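 Yeast expressing TDP-43 (pregrown in raffinose, seeded at OD600=0.02 in galactose medium) exposed to compounds 24 hr at 30 deg C. Growth read by BacTiter-Glo luminescence; rescue of toxicity appears as increased signal.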
Potency means the concentration at half of the fitted maximal effect; tags describe the fitted curve by direction and shape.

Q: Which Potency does the source give for `CC(C)(C)C(=O)NC(=S)Nc1ccccc1N1CCCC1` here?
A: inconclusive: 11.2 µM [activator, partial curve]

Q: For `Nc1ccc(C(=O)NC2CCSc3ccccc32)cc1[N+](=O)[O-]` (configuration not stated), which Potency is on record?
A: inconclusive: 20 µM [activator, single point]

Q: Which Potency does the source give for `Nc1nc(COc2ccc(F)cc2Cl)nc(N2CCCCC2)n1` here?
A: inconclusive: 11.2 µM [activator, partial curve]

Q: For `O=c1c2c(-c3ccc(Cl)cc3)csc2nc2n1CCC2`, which Potency is on record?
A: active: 14.1 µM

Q: Which Potency does the source give for `COc1ccccc1C(=O)Nc1ccc(C(=O)O)cc1` here?
A: inconclusive: 35.5 µM [activator, partial curve, poor fit]

Q: Which growth rescue (activation) does the source give for `CC(=NNC(=S)Nc1cccc(Cl)c1)c1ccccn1` here?
A: inconclusive: -89.7% [activator]

Q: With `Cc1nc2nc(Cc3ccccc3)nn2c(C)c1Cl` as the compound, how does the Potency read?
A: inconclusive: 17.8 µM [activator, single point]

Q: Which Potency does the source give for `Nc1ccc2nc(-c3ccc(N)c(Cl)c3)[nH]c2c1` here?
A: inconclusive: 11.2 µM [activator, single point]

Q: With `CCOC(=O)c1ccc(NC(=O)Cc2noc3ccc(C)cc23)cc1` as the compound, how does the Potency read?
A: inconclusive: 6.31 µM [activator, partial curve]

Q: For `O=c1[nH]nc(CNc2ccc(C(F)(F)F)cc2)c2ccccc12`, which “growth rescue (activation)” value is on record?
A: inactive: 20.9%

Q: Which Potency does the source give for `COc1cc(C(=O)N/N=C(\C)c2ccc3c(c2)OCO3)cc(OC)c1OC` here?
A: inconclusive: 6.31 µM [activator, partial curve, poor fit]

Q: Which “growth rescue (activation)” value does the source give for `CCOc1ccc2nc(NC3=NC(c4ccc(OC)cc4)CC(=O)N3)nc(C)c2c1` (configuration not stated) here?
A: inactive: -13.2%

Q: Which Potency does the source give for `CCOC(=O)CSC1=NC(=O)/C(=C/c2ccc(OC)cc2)S1` here?
A: inconclusive: 3.55 µM [activator, partial curve]

Q: With `Cc1nnc(NC(=O)c2ccc(S(=O)(=O)N3CCCCCC3)cc2)o1` as the compound, how does the Potency read?
A: inconclusive: 31.6 µM [activator, single point]

Q: For `COc1ccccc1N1CCN(C(=O)c2nn(C)c3c2CS(=O)(=O)c2ccccc2-3)CC1`, which Potency is on record?
A: inconclusive: 5.62 µM [activator, full curve, poor fit]

Q: Which “growth rescue (activation)” value does the source give for `CCCCN(CCCC)CCCNC(=O)c1cc(-c2ccc(Cl)s2)nc2ccccc12` here?
A: inactive: -1.33%

Q: With `O=C1Nc2ccccc2N(O)N1c1cc(-c2cccc(Cl)c2)no1` as the compound, how does the “growth rescue (activation)” value read?
A: inactive: 22.7%

Q: Which Potency does the source give for `COc1ccc(-n2ncc3c2ncn2nc(-c4ccc(OC)c(OC)c4)nc32)cc1` here?
A: inconclusive: 0.562 µM [activator, full curve]

Q: For `CC1=C(C(=O)Nc2ccccc2)C(c2ccc(Br)cc2)n2nc(CCCO)nc2N1` (configuration not stated), which “growth rescue (activation)” value is on record?
A: inactive: 29.7%

Q: With `COc1ccc(Cl)cc1C(=O)Nc1cccnc1` as the compound, how does the Potency read?
A: inconclusive: 35.5 µM [activator, partial curve, poor fit]

Q: With `CC1CCN(C(=O)CSCC(=O)Nc2nc(-c3cccs3)cs2)CC1` as the compound, how does the Potency read?
A: active: 35.5 µM

Q: Which “growth rescue (activation)” value does the source give for `CCN(C(=O)Cn1c(C(=O)OC)cc2sccc21)c1cccc(C)c1` here?
A: inactive: 6.05%

Q: Which Potency does the source give for `FC(F)(F)c1cc(-c2ccco2)nc(NCc2ccc(Cl)cc2)n1` here?
A: inconclusive: 35.5 µM [activator, single point]

Q: Which Potency does the source give for `Cc1cccc(C)c1NC(=O)COC(=O)c1ccccc1O` here?
A: inconclusive: 35.5 µM [activator, single point]

Q: For `COc1ccc(N2CC(O)=C(c3nc(-c4ccccc4)cs3)C2=N)cc1`, which Potency is on record?
A: inconclusive: 17.8 µM [activator, single point]

Q: With `CCOc1ccc(C(=O)CN2CCN(S(=O)(=O)c3ccc(Br)cc3)CC2)cc1` as the compound, how does the Potency read?
A: inconclusive: 35.5 µM [activator, single point]

Q: For `CC1=C(C(=O)Nc2ccccc2Br)C2(CCC(C)CC2)OC1=O` (configuration not stated), which Potency is on record?
A: inconclusive: 12.6 µM [activator, partial curve, poor fit]

Q: Which “growth rescue (activation)” value does the source give for `CCOc1ccccc1-c1n[nH]c(=S)o1` here?
A: inactive: 4.81%

Q: With `O=C(C1CCN(S(=O)(=O)c2cccs2)CC1)N1CCN(c2ccccc2F)CC1` as the compound, how does the “growth rescue (activation)” value read?
A: inactive: -1.47%

Q: For `COc1ccc(C(=O)C2CCCN(C(=O)COc3ccc(C(C)=O)cc3)C2)cc1F` (configuration not stated), which Potency is on record?
A: inconclusive: 20 µM [activator, partial curve, poor fit]

Q: With `Cc1cc(Nc2cc(Cl)ccc2C)n2nc(-c3ccccc3)nc2n1` as the compound, how does the “growth rescue (activation)” value read?
A: inactive: 15.3%

Q: Which Potency does the source give for `N#CCSc1nc2c(c(C3CC=CCC3)c1C#N)CCC2` (configuration not stated) here?
A: inconclusive: 22.4 µM [activator, single point]

Q: For `Cc1cc(C)c2c(NC(=O)c3ccccc3Cl)c(C(=O)NCc3ccc(Cl)cc3)sc2n1`, which “growth rescue (activation)” value is on record?
A: inactive: 23.6%

Q: With `CCCC(C)c1nnc(NC(=O)CCS(=O)(=O)c2ccccc2)s1` (configuration not stated) as the compound, how does the “growth rescue (activation)” value read?
A: inactive: -12.5%

Q: With `Cc1ccccc1-c1noc(-c2ccc(NCc3cccnc3)c([N+](=O)[O-])c2)n1` as the compound, how does the Potency read?
A: inconclusive: 10 µM [activator, partial curve]

Q: For `COc1ccccc1CNC(=O)Cc1ccccc1`, which Potency is on record?
A: inconclusive: 6.31 µM [activator, partial curve]

Q: Which Potency does the source give for `COc1cc(OC)c(NC(=O)c2ccc(-n3cnc4cccnc43)cc2)cc1Cl` here?
A: inconclusive: 31.6 µM [activator, partial curve]

Q: For `COc1ccc(-c2nc3cnccn3c2NC2CCCCC2)cc1-c1cccc(Cl)c1`, which Potency is on record?
A: inconclusive: 17.8 µM [activator, single point] and inconclusive: 35.5 µM [activator, single point]

Q: With `O=c1c2c(nc3n1CCCCC3)-c1ccccc1CC21CCCC1` as the compound, how does the Potency read?
A: inconclusive: 31.6 µM [activator, single point]

Q: For `CCOc1cccc2sc(N3CCN(C(=O)c4ccco4)CC3)nc12`, which Potency is on record?
A: inconclusive: 11.2 µM [activator, partial curve]

Q: With `COc1ccc(-c2coc3cc(O)cc(O)c3c2=O)cc1` as the compound, how does the Potency read?
A: inconclusive: 3.16 µM [activator, partial curve]

Q: With `COC(=O)CSc1cnc2ccccc2n1` as the compound, how does the “growth rescue (activation)” value read?
A: inactive: -0.0339%

Q: Which “growth rescue (activation)” value does the source give for `O=C(NCc1cccnc1)C1c2ccccc2C(=O)N1C1CCCCCCC1` (configuration not stated) here?
A: inactive: -2.31%

Q: For `CCOC(=O)c1c(C)[nH]c(C)c1C(=O)COC(=O)/C=C/c1cccc(Cl)c1`, which Potency is on record?
A: inconclusive: 3.16 µM [activator, partial curve]

Q: With `CCOc1ccc(-c2cc(C(=O)NCCc3ccc(C)cc3)c3ccccc3n2)cc1` as the compound, how does the “growth rescue (activation)” value read?
A: inactive: 29.8%

Q: For `COc1ccc(CNc2ccc(C)cc2)cc1Br`, which Potency is on record?
A: active: 17.8 µM

Q: For `Cc1ccccc1C(=O)O/N=C(\N)Cc1cccs1`, which growth rescue (activation) is on record?
A: inconclusive: -85.3% [activator]

Q: Which Potency does the source give for `CC(=O)c1cccc(NC(=O)COc2ccccc2)c1` here?
A: inconclusive: 10 µM [activator, partial curve]

Q: Which Potency does the source give for `CCOc1ccccc1C(=O)N1CCc2cc(OC)c(OC)cc2C1COc1ccc(OC)cc1` (configuration not stated) here?
A: inconclusive: 35.5 µM [activator, partial curve]

Q: Which Potency does the source give for `Cc1ccc(-c2nc3cccc(C)n3c2Nc2ccc3c(c2)OCO3)o1` here?
A: inconclusive: 6.31 µM [activator, single point]

Q: Which “growth rescue (activation)” value does the source give for `COc1cccc(CNC(=O)Cn2ncn3c(cc4ccccc43)c2=O)c1` here?
A: inactive: 8.84%

Q: Which Potency does the source give for `O=C(Nc1ccccc1)C1=C[C@@H](C2CC2)C[C@@H](OCc2ccc(CO)cc2)O1` here?
A: inconclusive: 10 µM [activator, partial curve]

Q: Which Potency does the source give for `Cc1ccc(S(=O)(=O)Nc2ccccc2)cc1[N+](=O)[O-]` here?
A: inconclusive: 12.6 µM [activator, partial curve]

Q: Which Potency does the source give for `Cc1cccc(C)c1NC(=O)/C(C#N)=C/c1ccsc1` here?
A: inconclusive: 35.5 µM [activator, single point]

Q: With `O=C(O)c1ccc(NCc2cccc(Br)c2)cc1` as the compound, how does the Potency read?
A: active: 11.2 µM

Q: Which Potency does the source give for `CN(CC(=O)Nc1c(Cl)cccc1Cl)C(=O)Cc1ccc2c(c1)CCC2` here?
A: inconclusive: 15.8 µM [activator, partial curve]

Q: Which Potency does the source give for `Clc1ccc(OCc2nn3c(C4CCCCC4)nnc3s2)c(Cl)c1` here?
A: inconclusive: 7.94 µM [activator, full curve]

Q: For `COC(=O)N/N=C/c1cc(C)n(-c2ccc(Br)cc2)c1C`, which Potency is on record?
A: inconclusive: 14.1 µM [activator, partial curve]

Q: With `CN(Cc1ccc(Cl)c(Cl)c1)C(=O)C1CSC2(C)CCC(=O)N12` (configuration not stated) as the compound, how does the Potency read?
A: inconclusive: 17.8 µM [activator, partial curve]

Q: With `COc1ccc(CCOC(=O)c2ccc(N)c([N+](=O)[O-])c2)cc1` as the compound, how does the Potency read?
A: inconclusive: 2.51 µM [activator, full curve]

Q: For `COc1ccc(NC(=O)c2cc(S(=O)(=O)N3CCCC(C)C3)cn2C)c(OC)c1` (configuration not stated), which Potency is on record?
A: inconclusive: 44.7 µM [activator, partial curve]

Q: Which Potency does the source give for `S=C(Nc1ccc(Br)cc1Cl)Nn1cnnc1` here?
A: inconclusive: 12.6 µM [activator, single point]

Q: With `O=C(Nc1ccc(Cl)cc1)ON=C1CCCC1` as the compound, how does the growth rescue (activation) read?
A: inconclusive: -95.8% [activator]

Q: Which Potency does the source give for `O=C(Cn1cc(SCc2ccc(Cl)cc2)c2ccccc21)N1CCOCC1` here?
A: inconclusive: 4.47 µM [activator, partial curve]

Q: With `CSc1nnc2c3cc(F)ccc3n(C)c2n1` as the compound, how does the Potency read?
A: active: 6.31 µM

Q: For `O=C(Cc1cccc(F)c1F)NC1CCCN(Cc2ccc(Cl)cc2)C1` (configuration not stated), which Potency is on record?
A: inconclusive: 14.1 µM [activator, partial curve]

Q: For `CC(C)Oc1ccc(C(=O)Nc2nnc3n2CCS3)cc1`, which “growth rescue (activation)” value is on record?
A: inactive: 15.2%

Q: Which Potency does the source give for `COc1ccc(NS(=O)(=O)c2ccc(F)c(Cl)c2)cn1` here?
A: inconclusive: 25.1 µM [activator, single point]

Q: For `COc1ccc(-n2nc(C(=O)Nc3cc(C)c(Cl)cc3OC)c3c4ccccc4n(C)c3c2=O)cc1`, which “growth rescue (activation)” value is on record?
A: inactive: 0%

Q: Which Potency does the source give for `O=C(CSc1ccc(-c2ccc(F)cc2)nn1)N1CCCc2ccccc21` here?
A: active: 22.4 µM

Q: Which Potency does the source give for `O=C(Nc1ccc(Cl)c(C(F)(F)F)c1)C1Cc2c(-c3ccccc3)ccnc2O1` (configuration not stated) here?
A: active: 31.6 µM

Q: Which Potency does the source give for `N#Cc1nc(/C=C/c2ccc(F)cc2)oc1N1CCCCCC1` here?
A: active: 11.2 µM
